Laboratory results published in the RNAGym collection of RNA variant scans (doi:10.1101/gad.245936.114).
Variants at the floor of the assay are shown more often than the library holds them.

B1: tRNA (parent)
chain: CUCUCGGUAGCCAAGUUGGUUUAAGGCGCAAGACUUUAAUUUAUCACUACGAAAUCUUGAGAUCGGGCGUUCGACUCGCCCCCGGGAGAUUUUUUCCUCGAGCAA

Variants of: B1
Test: nonsense suppression (GFP-seq) (ratio to wild type); higher = more function; SUP4oc tRNA, yeast GFP reporter sort-seq
Method in brief: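 Yeast carrying genome-integrated SUP4oc tRNA variants from a library with ~3% random mutations were grown in raffinose/galactose medium with 80 mg/L adenine. Each strain also carried a galactose-driven GFP ochre reporter and RFP. Cells were sorted into GFP/RFP bins, and each bin was Illumina-sequenced (phred ≥30). Nonsense suppression (GFPSEQ) is the bin median GFP/RFP, weighted by each variant's estimated cell share per bin, relative to wild-type SUP4oc; variants needed ≥100 reads and ≥30 cells.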

Nonsense suppression, ≤ 0.026:
CUCUCGGUAUCCAAGUUGGUUUAAGGCGCAAGACUUUAAUUUAUCACUACGAAAUCUUGAGAUCGGGCGUUCGACUCGCCCCCGGGAGAUUUUUUCCUCGAGCAA [G10U]
CUCUCGGUAUCCAAGUUGGUUUAAGGCGCAAGACUUUAAUUUAUCACUACGAAAUCUUGAGAUCGGGGGUUCGACGCGCCCCCGGGAUAUUUUUUCCUCGAGCAA [G10U C68G U76G G88U]
CUCUCGGUAUCCAAGUUGGUUUAAGGCGCAAGGCUUUAAUUUAUCACUACGAAAUCUUGAGAUCGGGCGUUCGACUCGCCCCCGGGAGAUUUUUUCCUCGAGCAA [G10U A33G]
CUCUCGGUACCCAAGUUGGUUUAAGGCGCAAGACUUUAAUUUAUCACUACGAAAUCUUGAGACCGGGCGUUCGACUCGCCCCCGGUGGAUUUUUUCCUCGAGCAA [G10C U63C G86U A87G]
CUCUCGGUAUCUAAGUUGGUAUAAGGCGCAGGACUUUAAUUUAUCACUACGAAAUCUGGAGAUCGGGCGUUCGACUCGCCCCCGGGAGAUUUUUUCCUCGAGCAA [G10U C12U U21A A31G U58G]
CUCUCGGUAUUCAAGUUGGUUUAAGGCGCAAUACUUUAAUUUAUCACUACGAAAUCUUGAAAUCGGGCGUUCGACUCGCCCCCGGGAGAUUUUUUCCUCGAGCAA [G10U C11U G32U G61A]
CUCUCGGUAUGCAAGUUGGUUUGAGGCGCAAGACUUUAAUUUAUCACUACGAAAUCUUGAGAUCGGGCGUUCGACUCGCCCCAGGGAGAUUUUUUCCUCGAGCAA [G10U C11G A23G C83A]
CUCUCGGUAUCGAAGUUGGUUUAAGGCGCAUUACUUUAAUUUAUCACUACGAAAUCUUGAGAUCGGGGGUUCGACUCGCCCCCGGGAGAUUUUUUCCUCGAGCAA [G10U C12G A31U G32U C68G]
CUCUCGGUAUCCAGGUUGGUUUAAGGCGCAAGACUUUAAUUUAUCACUACGAAAUCUUGAGACCGGGCGUUCGACCCGCCCCCGGGAUAUUUUUUCCUCGAGCAA [G10U A14G U63C U76C G88U]
CUCUCGGUAUCUAGAUUGGUUUAAGGCGCAAGACUUUAAUUUAUCACUACGAAAUCUUUAGAUCGGUCGUUCGACUCGCCCCCGAGAGAUUUUUUCCUCGAGCAA [G10U C12U A14G G15A G59U G67U G85A]
CUCUCGGUAUCCAAGUUGGUUUAAGGCGCAAGACUUUAAUUUAUCACUACGAAAUCUUGAGAUCGGGCGUUCGACUGGCCCCCGGGAGAUUUUUUCCUCGAGCAA [G10U C77G]
CUCUCGGUAUCCAAGUUGGUUUUAGGCGCAAGACUUUAAUUUAUCACUACGAAAUCUUGAGAUCGGGCGUUCGACUCGCCCCCGGGAGAUUUUUUCCUCGAGCAA [G10U A23U]
CUCUCGGUAUUCAAGUUGGUUUAAGGCGCAAGACUUUAAUUUAUCACUACGAAACCUUGAGAUCGGACGUUCGACUCGCCCCCGGGAGAUUUUUUCCUCGAGCAA [G10U C11U U55C G67A]
CUCUCGGUAUCCAAGUUGGUUUAAGGCGCAAGACUUUAAUUUAUCACUACGAAAUCUUGAGAUCGGGCGUUCGACUCGCCCCCGGGGGAUUUUUUCCUCGAGCAA [G10U A87G]
CUCUCGGUAUCCAAGUUGGUUUAAGGUGCAAGACUUUAAUUUAUCACUACGAAAUCUUGUGAUCGGGCGUUCGACUCACCCCCGGGAGAUUUUUUCCUCGAGCAA [G10U C27U A60U G78A]
CUCUCGGUAUUCAAGUUGGUUUAAGGCGCAAGACUUUAAUUUAUCACUACGAAAUCUUGAGAUCGGGCGUUCGACUCGCCCCCGGGAGAUUUUUUCCUCGAGCAA [G10U C11U]
CUCUCGGUAUCCAAGUUGGUUUAAGGCGCAGGACUUUAAUUUAUCACUACGAAAUCUUGAGAUCGGGCGUUCGACUCGCCCCCGGGAGAUUUUUUCCUCGAGCAA [G10U A31G]
CUCUCGGUAUCCAAGUUGGUUUAAGGCGCACGACUUUAAUUUAUCACUACGAAAUCUUGAGAUCGGGCGUUCGACUCGCCCCCGGGAGAUUUUUUCCUCGAGCAA [G10U A31C]
CUCUCGGUAUCCAAGUUGGUUUAAGGCGCAAGAGUUUAAUUUAUCACUACGAAAUCUUGAGAUCGGGCGUUCGGCUCGCCCCCGGGAGAUUUUUUCCUCGAGCAA [G10U C34G A74G]
CUCUCGGUAUCCAAGUUGGUUUAGGGCGCAAGACUUUAAUUUAUCACUACGAAAUCUUGAGAUCGGGCGUUCGACUCGCCCCCGGGAGAUUUUUUCCUCGAGCAA [G10U A24G]
CUCUCGGUAUCCAAGUUGGUUUUAGGCGCAAGACUUUAAUUUAUCACUACGAAAUCUUGAAAUCGGGCGUUCGACUCGCCCCCGGGAGAUUUUUUCCUCGAGCAA [G10U A23U G61A]
CUCUCGGUAUCCAAGUUGGUUUAAGGCGCAAGACUUUAAUUUAUCACUACGAAAUCUUGAGAUCGGGCGUUCGCUUCGCCCCCGGGAGAUUUUUUCCUCGAGCAA [G10U A74C C75U]
CUCUCGGUAUCCAAGUUGGUUUAAGGCGCAAGACUUUAAUUUAUCACUACGAAAUCUUGAGAUCGGGCGUUCGAUUCGCCCCCGGGAGUUUUUUUCCUCGAGCAA [G10U C75U A89U]
CUCUCGGUAUCCAAGUUGGUUUAAGGCGCAAGACUUUAAUUUAUCACUACGAAAUCUUGAGAUUGGGCGUUCGACUCGCCCCCAGGAGAUUUUUUCCUCGAGCAA [G10U C64U G84A]
CUCUCGGUAUCCAAGUUGGUUUAAGGCGCAAGACUUUAAUUUAUCACUACGAACUCUUGAGAUCGGGCGUUCGACUCGCCGCCGGGAGAUUUUUUCCUCGAGCAA [G10U A54C C81G]
CUCUCGGUAUCCAGGUUGGUUUAAGGCGCAAGACUUUAAUUUAUCACUACGAAAUCUUGAGAUCGGGCGUUCCACUCGCCCCCGGGAGAUUUUUUCCUCGAGCAA [G10U A14G G73C]
CUCUCGGUACCCAAGUUGGUUUAAGGCGCAAGACUUUAAUUUAUCACUACGAAAUCUUGAGAACGGGCGUUCGACUCGCCCCCGGGACAUUUUUUCCUCGAGCAA [G10C U63A G88C]
